The record followed here is PubChem BioAssay (NCI).

The experiment deals with NCI-H322M lung. Briefly: NCI-60 cell line screen, 48 h.

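These data come from cells grown in 96-well plates and exposed to compound for 48 hours at five concentrations. GI50 is the concentration that inhibits growth by half. At the TGI there is no net growth.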

For the compound `CSc1ccccc1NC(=O)c1ccc2nnn(/C(C#N)=C/c3ccccn3)c2c1`, the GI50 was 13.9 µM and the TGI amounted to 26.8 µM.

For the compound `CONC[C@]1(C)C=C2C(=O)[C@](C)(O)C3(CC3)C(C)=C2[C@H]1O`, the GI50 is 2.18 µM and the TGI was determined as 7.34 µM.

Consider `CN1CCN(c2ccc(Nc3nc(N4CCN(S(=O)(=O)c5ccc(F)cc5)CC4)c4sccc4n3)cc2)CC1`, for which the GI50 was 3.31 µM and the TGI is 12.3 µM.

On to `O=C(CS(=O)(=O)c1oc(-c2ccc(Cl)cc2)nc1S(=O)(=O)c1ccc(Cl)cc1)N1CCOCC1`, for which the GI50 is 66 µM and the TGI was over 100 µM.

Consider `O=C(CNc1nc(-c2ccccc2)cs1)Nc1ccc([N+](=O)[O-])cc1`, for which the GI50 is 4.16 µM and the TGI came out at 17.3 µM.
